The results in this text go back to publication PMC6919601, “Identification of Plasmodium dipeptidyl aminopeptidase allosteric inhibitors by high throughput screening” (PLoS ONE, 2019).

Structures are written as SMILES. “And” between values parts separate entries of the source, which are not always exact repeats. Equal entries are not always repeated. Among all 110,000 compounds or so, about 230 (0.21%) showed an effect of 50% or more. The list shows a part of the results.
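Also: 30 min substrate incubation versus DMSO and 10 µM JCP410 controls.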

DPAP1, sequence (Q8IIJ9 whole entry, looked up): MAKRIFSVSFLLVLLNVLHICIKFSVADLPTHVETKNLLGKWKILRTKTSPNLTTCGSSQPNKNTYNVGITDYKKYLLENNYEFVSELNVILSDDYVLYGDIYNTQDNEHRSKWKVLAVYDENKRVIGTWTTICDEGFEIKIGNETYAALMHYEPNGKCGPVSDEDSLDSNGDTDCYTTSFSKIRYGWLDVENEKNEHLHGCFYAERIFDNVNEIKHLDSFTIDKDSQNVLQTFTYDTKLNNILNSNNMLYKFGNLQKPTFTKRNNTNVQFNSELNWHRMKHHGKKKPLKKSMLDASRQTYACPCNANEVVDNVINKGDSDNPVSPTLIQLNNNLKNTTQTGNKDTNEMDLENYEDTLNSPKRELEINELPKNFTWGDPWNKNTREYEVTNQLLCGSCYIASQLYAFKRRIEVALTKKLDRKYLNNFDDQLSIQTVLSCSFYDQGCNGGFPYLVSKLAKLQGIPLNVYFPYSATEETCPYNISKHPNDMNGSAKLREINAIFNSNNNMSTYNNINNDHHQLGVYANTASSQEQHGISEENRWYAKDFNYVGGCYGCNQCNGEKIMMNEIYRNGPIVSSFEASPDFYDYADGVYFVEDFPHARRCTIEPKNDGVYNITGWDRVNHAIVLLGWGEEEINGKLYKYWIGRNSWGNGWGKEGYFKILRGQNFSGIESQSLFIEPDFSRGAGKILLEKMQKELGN

The assay concerns the target DPAP1 (Plasmodium falciparum, UniProt Q8IIJ9). Nature of the assay: primary screen, percent inhibition; read by cleavage of a fluorogenic dipeptide substrate; higher = more effect of the substance. Set-up: species or system P. falciparum D10 trophozoite lysates; single well.
For `CCN1CCCC1CNC(=O)CCNC(=O)c1cc(OC)c(OC)c(OC)c1` (stereo not shown), the “% Inhibition @ 10 uM” value is recorded as -0.519%.
The value for `Nc1c(-c2nc(-c3ccncc3)no2)nnn1-c1ccccc1` was -4.46%; that for `COc1ccccc1N(CC(=O)N1CCC(C)CC1)S(C)(=O)=O` was -2.8%.
The value for `CCc1ccc(C(C#N)NC(=O)[C@H](CC(C)C)NC(=O)OCc2ccccc2)s1` (stereo partly shown) was -1.41%.
For the molecule `O=C(O)CCC(=O)Nc1ccc(S(=O)(=O)NC2CCCCC2)cc1`, the “% Inhibition @ 10 uM” value is reported as 1.49%.
The value for `CCOc1ccc(CCNCc2c(C(=O)O)c(C)n(Cc3ccccc3F)c2C)cc1OCC` was -5.49%; that for `O=C1c2ccccc2C(=O)N1c1cccc(-c2csc(Nc3ccc(Br)cc3)n2)c1` was 0.705%.
Turning to `Cc1ccc(C(=O)c2cn(Cc3cccc(C(F)(F)F)c3)c3nc(C)ccc3c2=O)cc1`, the “% Inhibition @ 10 uM” value is -1.71%.
With `O=C(CSc1nnc(COc2ccc(Cl)cc2)o1)N1CCOCC1`, the “% Inhibition @ 10 uM” value is -4.66%.
The value for `CCOc1ccc(-c2cn3ncsc3n2)cc1` was 2.41%; that for `O=C(Nc1ccccc1)c1cc(SCCS(=O)(=O)c2ccc(Cl)cc2)ccc1Cl` was -0.216%.
The value for `Cc1c(/C(Cc2ccccc2)=N/O)c2ccccc2n1C` was -4.35%; that for `CC1CCN(C2=NN3C(=N)/C(=C\c4cccn4Cc4ccccc4)C(=O)N=C3S2)CC1` was 1.72%; that for `CCOC(=O)C1CCN(Cc2ccc([N+](=O)[O-])cc2)CC1` was -5.5%.
In the case of `CCOC(=O)c1c(C)oc2ccc(O)c(CN3CC4(C)CC3CC(C)(C)C4)c12` (stereo not shown), the “% Inhibition @ 10 uM” value is given as -4.82%.
The value for `Cc1cc(C)cc(Oc2nc3ccccn3c(=O)c2/C=C(\C#N)C(=O)NCc2ccco2)c1` was 0.101%; that for `CCc1c(C)sc(NC(=O)CC(c2ccccc2)c2ccccc2)c1C(N)=O` was -2.16% and 6.69%.
The value for `CN(C)/C(=N\S(=O)(=O)c1ccc(Br)cc1)c1ccccc1` was 4.54%; that for `Cc1nc2c(C(=O)NC(C)CCc3ccccc3)cnn2c(C)c1Cc1ccccc1` (stereo not shown) was -2.26%.
As for `OC1CCCCc2c1[nH]c1ccc(C3CCCCC3)cc21` (stereo not shown), the “% Inhibition @ 10 uM” value turned out to be 20.8%.
The value for `CN1CCN(C(=O)CNS(=O)(=O)c2ccc(Br)cc2)CC1` was -1.51%.
The value for `CCOc1ccc(CCNC(=O)CCCc2nnc3n(CCC(C)C)c(=O)c4sccc4n23)cc1` was -3.58%.
The value for `CCOc1ccccc1CNC(C)(C)CO` was 1.02%; that for `COc1ccc(-c2cc(C(=O)NCc3cn(C)nc3C)c3ccccc3n2)cc1OC` was 0.115%.
As for `COCCNC(=O)CCCn1c(SCc2ccccc2F)nc2c(sc3ccccc32)c1=O`, the “% Inhibition @ 10 uM” value amounted to 11.2%.
Turning to `O=C(CN1Cc2ccccc2C1=O)NCC1CCN(Cc2ccc(F)cc2)CC1`, the “% Inhibition @ 10 uM” value is reported as -2.41%.
The value for `C=CCN1C(=O)S/C(=C/c2ccc(N3CCOCC3)cc2)C1=O` was 2.49%.
The value for `CCN(CC)Cc1cc2ccccc2c2c1COC2` was 2.62%; that for `CCOc1ccc(CCNC(=O)CS(=O)Cc2nc(-c3cccc(C)c3)oc2C)cc1OCC` (stereo not shown) was -4.71%.
The value for `O=C(NCCN1CCOCC1)c1nc(-c2ccc(Cl)cc2)n2c1CCCCC2` was 2.36%; that for `CC(C)C(=O)Nc1ccc(NC(=O)COc2ccccc2Cl)cc1` was 8.43%; that for `C=CCN(C(C)=O)c1nc(-c2ccccc2)cs1` was 1.03%.
Consider `CC(C)NC(=S)NC1(C)CCS(=O)(=O)C1` (stereo not shown), for which the “% Inhibition @ 10 uM” value was found to be 0.884%.
On to `COc1ccc(-c2c(C)nn3c(O)c4c(nc23)CCC4)cc1`, for which the “% Inhibition @ 10 uM” value worked out at 1.4%.
The value for `Cc1nn(CC(=O)N2CCC(C)CC2)c(=O)c2cccn12` was -10.2%.
The value for `CC1CCN(C(=O)C2CC(c3ccccc3F)=NO2)CC1` (stereo not shown) was 4.41%; that for `O=C(NCCCN1CCOCC1)c1nn2c(C(F)(F)F)cc(-c3cccs3)nc2c1Cl` was -7.15%.
The value for `CNC(=O)CN(CCc1ccccc1)S(=O)(=O)c1c(C)cc(C)cc1C` was 3.65%.
With `CC(=O)C1=C(C)OC(N)=C(C#N)C1c1c(Cl)cccc1Cl` (stereo not shown), the “% Inhibition @ 10 uM” value was found to be 2.46%.
The value for `O=C(NCc1ccccc1)N1CCn2c(nc3ccccc32)C1` was 2.34%; that for `OC1CCN(Cc2ccccc2F)CC1` was -1.77%; that for `c1ccc(CCCN2CCN(Cc3ccccc3)CC2)cc1` was -2%.
The value for `Cc1c(CNCC2CCCO2)c(C(=O)O)c(C)n1Cc1ccc(F)cc1` (stereo not shown) was -3.67%.
For `Cc1ccoc1C(=O)NCCNC(=O)c1occc1C`, the “% Inhibition @ 10 uM” value is given as -1.6%.
On to `COc1cc(C)nc(N(Cc2ccccc2)S(=O)(=O)c2ccc(C)cc2)n1`, for which the “% Inhibition @ 10 uM” value turned out to be 5.03%.
The value for `COc1ccc(NC(=O)CN(C)S(=O)(=O)c2cc(Cl)ccc2Cl)cc1` was 3.17%; that for `COc1cc(CNC(C)(C)CO)ccc1OCc1ccccc1` was -7.14%.
The value for `COc1ccc(-n2cnc3cc(C(=O)NCc4ccccc4Cl)ccc32)cc1` was 5.85%; that for `O=C(CCN1C(=O)c2cccc3cccc(c23)C1=O)NCCN1CCOCC1` was -3.9%.
The value for `Cc1cc(/C=C2\NC(=O)NC2=O)c(C)n1-c1cccnc1` was -0.473%.
As for `COc1ccc(OC)c(NC(=O)CN(c2cc(C)ccc2OC)S(C)(=O)=O)c1`, the “% Inhibition @ 10 uM” value is -4.13%.
The value for `COc1ccc(N2CCN(C(=O)c3ccc(-n4nc(C)cc4C)cc3)CC2)cc1` was -3.25%; that for `Cc1cc(C)c2c(C)nn(C)c2n1` was 3.81%.
The value for `COc1cccc(CN2CCN(C3CCC(C)CC3)CC2)c1OC` (stereo not shown) was -4.69%.
The value for `CCC(C)NS(=O)(=O)c1ccc2c(c1)Cc1cc(S(=O)(=O)NC(C)CC)ccc1-2` (stereo not shown) was 1.27%; that for `CCOc1ccc(-c2[nH]nc3c2C(c2ccc(OC)c(OC)c2)C(C#N)=C(N)O3)c(OCC)c1` (stereo not shown) was -6.58%.
As for `COc1ccc(OC)c(C(=O)c2ccc(C(=O)N3CCCCC3)cc2)c1`, the “% Inhibition @ 10 uM” value is reported as -2.32%.
The value for `CCN(CC)C(=O)C1CCCN(Cc2ccc(Br)cc2)C1` (stereo not shown) was -1.77%; that for `CCCc1cc2c(cc1OC)OCC(c1ccc3c(c1)OCCO3)C2=O` (stereo not shown) was -2.59%; that for `O=C(CN1Cc2ccccc2C1=O)N1CCc2ccccc2C1` was 0.297%.
The value for `Cc1csc(NC(=O)C(C)N2Cc3ccccc3C2=O)n1` (stereo not shown) was -0.501%; that for `COc1cccc(C(=O)Nc2ccc(N3CCN(C(=O)C(C)C)CC3)c(Cl)c2)c1` was -1.43%.
The value for `Cc1ccc2cc3cc(C(=O)NCCC(C)C)sc3nc2c1` was -1.27%; that for `Cc1cccc(OCC(=O)N2CCN(C(=O)c3ccco3)CC2)c1` was 1.26%; that for `COc1ccc2c(c1)CCc1c(C(=O)NCCCN3CCOCC3)noc1-2` was -7.85%.
On to `CC(C)NC(=S)N1CCC(Cc2ccccc2)CC1`, for which the “% Inhibition @ 10 uM” value was determined as 4.19%.
The value for `COc1ccc(-n2c(C)nc3cc(C(=O)NCCC4=CCCCC4)ccc32)cc1` was -7.66%; that for `CCN1C(=O)c2cccc3c(S(=O)(=O)N4CCCC4C(=O)O)ccc1c23` (stereo not shown) was 0.583%; that for `O=S(=O)(NCc1ccccc1)c1ccc2c(c1)OCCO2` was 16.1%.
The value for `COc1ccc(C2C=C(c3ccc(OC(F)F)cc3)Nc3nnnn32)cc1` (stereo not shown) was 3.12%; that for `COc1ccc(-c2nnc(-c3ccc(OC)cc3)o2)cc1` was -0.216%; that for `CS(=O)(=O)c1ccc(S(=O)(=O)C(F)(F)F)cc1` was -1.05%.
The value for `Cc1cc2c(cc3c(=O)n(CC(=O)NCc4ccccc4Cl)ncn32)s1` was 1.68%; that for `COC(=O)C1=C(O)/C(=C\c2ccc(C(=O)O)cc2)N=C1C` was 0.131%; that for `CC1=C(C(=O)Nc2ccc(C)cn2)C(c2cnn(C)c2C)C2=C(O)CC(c3ccccc3)CC2=N1` (stereo not shown) was -0.968%.
For `CC(C)C1NCCc2c1sc1ccccc21` (stereo not shown), the “% Inhibition @ 10 uM” value is reported as 5.58%.
The value for `COc1ccc(C(=O)N(CCCN(C)C)c2nc3c(C)cccc3s2)cc1` was -4.61%; that for `CC1CCN(S(=O)(=O)c2ccc3c(ccn3CC(=O)NCCCc3ccccc3)c2)CC1` was -2.37%; that for `O=C(Cn1nnc(-c2ccccc2Cl)n1)NCCCN1CCOCC1` was 7.16%.
The value for `COc1ccc(C(=O)Nc2ccc(S(=O)(=O)Nc3ccc(Cl)c(Cl)c3)cc2)cc1` was -4.59%; that for `CCOCCCNC(=O)CCn1cnc2onc(-c3ccc(F)cc3)c2c1=O` was 0.358%; that for `COc1ccc(C(=O)C2=C(O)C(=O)N(CCc3c[nH]c4ccccc34)C2c2ccc(O)c(OC)c2)cc1` (stereo not shown) was 2.62%.
The value for `CC1=C(C#N)C(=O)N(CCCO)C(=O)/C1=C\c1ccc(-c2ccc(Br)cc2)o1` was -1.26%; that for `Cc1ccc(C(=O)Nc2cccc(NC(=O)c3ccc(C)cc3)c2)cc1` was -1.36%.
As for `OCc1ccc(C#Cc2ccccc2)o1`, the “% Inhibition @ 10 uM” value was -0.415%.
The value for `COc1cc(CN2CCN(Cc3ccco3)CC2)cc(OC)c1` was 9.11%; that for `O=C(Nc1cccc([N+](=O)[O-])c1)c1c(F)cccc1F` was -0.546%.
For the molecule `Cc1nc2c(C(=O)NCCN(C)C)cnn2c(C)c1Cc1c(F)cccc1Cl`, the “% Inhibition @ 10 uM” value is listed as -4.29%.
Regarding `O=C(c1ccccc1F)N1N=C(c2ccccc2)CC1(O)C(F)(F)F` (stereo not shown), the “% Inhibition @ 10 uM” value is 1.02%.
Take `C=CCc1ccccc1OCCN1CCN(C)CC1`: the “% Inhibition @ 10 uM” value was -0.0735%.
The value for `CC(C)Cc1nc2sc3c(c2c(=O)o1)CCCCC3` was 3.59%.
The value for `CCOc1cc(CN2CCN(c3ccc(OC)cc3)CC2)ccc1OC` was -1.77%; that for `COc1ccc2[nH]c(C)c(CCNC(=O)c3cccs3)c2c1` was -1.24%; that for `CCCCCO/C(O)=C1/C(C)=Nc2ncnn2C1c1ccc(OC)cc1` (stereo not shown) was -2.41%.
In the case of `O=C(Nc1ccc(Cl)cc1)NC1CCCCC1NC(=O)Nc1ccc(Cl)cc1` (stereo not shown), the “% Inhibition @ 10 uM” value was determined as 0.528%.
The value for `CC(CCc1ccccc1)NC1CCN(Cc2ccccc2)CC1` (stereo not shown) was -2.56%.
The value for `COc1cc2c(cc1OC)CN(CC1CC=CCC1)CC2` (stereo not shown) was 1.74%; that for `COc1ccc(S(=O)(=O)c2nnn(-c3ccccc3Cl)c2N)cc1` was -3.34%.
As for `O=C(CN1CCCCC1)c1c[nH]c2ccccc12`, the “% Inhibition @ 10 uM” value is 2.99%.
The value for `Cc1cc(Cl)ccc1OCC(=O)Nc1ccccc1C(=O)O` was -1.88%.
